Source: PubChem BioAssay AID1345082 (National Center for Advancing Translational Sciences (NCATS), 2018)
The whole screen tested about 94,000 compounds, of which about 4,000 (4.3%) were called active. The shares of active, inactive and inconclusive entries below differ from those in the screen. The call rests on the fitted dose curve; in most records, active means well fitted inhibition curve with a large enough effect; inconclusive means small, poorly fitted or top-dose-only effect; inactive means no such curve, though single readings can be large or run the other way. A potency beside an inconclusive call is a rough fit, not a confirmed value.

Experiment: Cytotoxic Profiling in NIH 3T3 Cell Line of Diverse Libraries Using Quantitative High-Throughput Screening; further: nearly all actives have a fitted effect of over 55% in size
Settings: NIH 3T3 viability, CellTiter-Glo ATP luminescence, 48-72 h; activity change, negative = cytotoxicity: at 96.7 µM (top of the series) unless noted; series mostly up to 96.7 µM
How it was run: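 Luminescent ATP readout (CellTiter-Glo, 10 min RT) after 48 or 72 hr compound exposure of NIH 3T3 cells seeded at 400 cells/well in 1536-well format; quantitative HTS.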
On the % scale 0 is the no-effect control and ±100 the full control effect; potency means the concentration at half of the fitted maximal effect; tags describe the fitted curve by direction and shape.

Question: For `O=C1CC(c2noc(-c3ccccc3Cl)n2)CN1c1ccc(F)cc1` (stereo unspecified), which Potency is on record?
Answer: The Potency was inconclusive: 44.7 µM [inhibitor, partial curve, poor fit].

Question: With `COc1ccc(F)c(CN2CCC(CCC(=O)N3CCN(c4ccccc4)CC3)CC2)c1` as the compound, how does the Potency read?
Answer: Its Potency is inconclusive: 50.1 µM [inhibitor, partial curve, poor fit].

Question: For `CC1(c2ccccc2)CCCN(C(=O)c2cnc(-c3cccnc3)nc2)C1` (stereo unspecified), which Potency is on record?
Answer: Its Potency is inconclusive: 56.2 µM [inhibitor, partial curve, poor fit].

Question: Which “activity change, negative = cytotoxicity” value does the source give for `COc1ccc(C(=O)N2CCC3(CC2)CC(c2nc(C)no2)N(C)C3)cc1F` (stereo unspecified) here?
Answer: The value was inactive: -19.2%.

Question: For `O=C(NCc1cccc(F)c1)C1CCCN(Cc2cccc(-c3ccc(F)cc3F)c2)C1` (stereo unspecified), which Potency is on record?
Answer: Its Potency is active: 35.5 µM.

Question: Which Potency does the source give for `O=C(Cc1cccnc1)N1CCC(N2C(=O)C3(CCCCC3)C2c2ccccc2)CC1` (stereo unspecified) here?
Answer: The Potency was inconclusive: 50.1 µM [inhibitor, partial curve, poor fit].

Question: With `O=C1CO[C@H]2CN(Cc3ccc4c(c3)OCO4)C[C@H]2N1Cc1ccc(F)cc1` as the compound, how does the Potency read?
Answer: The Potency was inconclusive: 63.1 µM [inhibitor, partial curve, poor fit].

Question: With `O=C(CCn1ccn2nc3c(c2c1=O)CCCC3)Nc1ccc(F)c(Cl)c1` as the compound, how does the Potency read?
Answer: Its Potency is inconclusive: 50.1 µM [inhibitor, partial curve, poor fit].

Question: For `CC(C)CCN1CCC(O)(c2csc(CN3CCN(C)CC3)n2)CC1`, which Potency is on record?
Answer: The Potency was inconclusive: 112 µM [inhibitor, partial curve, poor fit].

Question: Which Potency does the source give for `Cc1ccc(NC(=O)N2CCCC(Cn3c(C4CC4)nc4cccnc43)C2)cc1C` (stereo unspecified) here?
Answer: The Potency was inconclusive: 50.1 µM [inhibitor, single point].

Question: For `CCOc1ccc(C(=O)N2CCN(c3cc(-c4ccc(Cl)cc4)[nH]n3)CC2)cc1`, which Potency is on record?
Answer: Its Potency is inconclusive: 39.8 µM [inhibitor, partial curve, poor fit].

Question: For `COc1ccc(-c2cc3c(nc2-c2ccccc2)nc(C(=O)NCCN(C)C)n3C)cc1OC`, which Potency is on record?
Answer: The Potency was inconclusive: 31.6 µM [inhibitor, full curve, poor fit].

Question: For `COc1ccc2[nH]c(C[C@@H]3C[C@@H](C(C)C)[C@H](CNC(=O)Cn4cnnn4)C=C3C)nc2n1`, which Potency is on record?
Answer: Its Potency is inconclusive: 89.1 µM [inhibitor, partial curve, poor fit].

Question: Which Potency does the source give for `O=C(c1ccc2ncccc2c1)N1CCOC(c2ccc(Cl)c(Cl)c2)C1` (stereo unspecified) here?
Answer: Its Potency is inconclusive: 44.7 µM [inhibitor, partial curve].

Question: For `CCn1cc(S(=O)(=O)N2CCC3(CCC3N3CCOCC3)CC2)cn1` (stereo unspecified), which “activity change, negative = cytotoxicity” value is on record?
Answer: Its value is inactive: -4.68%.

Question: For `COc1ccc(N2CCOC3CCN(Cc4ccccn4)CC3C2=O)cc1` (stereo unspecified), which Potency is on record?
Answer: Its Potency is inconclusive: 100 µM [inhibitor, single point].

Question: With `O=C(NC1C[C@H]2CC[C@@H](C1)N2C(=O)Nc1ccc2c(c1)OCCO2)c1ccc(F)cc1` (stereo partly specified) as the compound, how does the “activity change, negative = cytotoxicity” value read?
Answer: Its value is inactive: -19%.

Question: For `N#Cc1cccc(NC(=O)O[C@@H]2CO[C@H]3[C@@H]2OC[C@@H]3Nc2nccc(-c3ccccc3)n2)c1`, which Potency is on record?
Answer: Its Potency is active: 35.5 µM.

Question: Which Potency does the source give for `COc1ncccc1-c1nc(N2CCOCC2)cc2c1CN(CC(F)(F)F)C2=O` here?
Answer: The Potency was inconclusive: 10 µM [inhibitor, full curve, poor fit].

Question: For `O=C(NCc1nnc2cc(-c3nc(C4CC4)no3)ccn12)c1ccccc1Cl`, which Potency is on record?
Answer: Its Potency is inconclusive: 35.5 µM [inhibitor, partial curve].

Question: For `FC(F)(F)c1cccc(C2=NOC3(CCN(Cc4ccsc4)CC3)C2)c1`, which Potency is on record?
Answer: The Potency was inconclusive: 50.1 µM [inhibitor, partial curve, poor fit].

Question: With `Cc1cccc(C(=O)NC2CCN(c3cc(-c4ccccc4)[nH]n3)C2)c1` (stereo unspecified) as the compound, how does the “activity change, negative = cytotoxicity” value read?
Answer: The value was inactive: -19.9%.

Question: With `CN(C)c1cccc(-c2cnc(NC(=O)C3CCOCC3)c3c2CCO3)c1` as the compound, how does the “activity change, negative = cytotoxicity” value read?
Answer: The value was inactive: -27.6% [at 138 µM].

Question: Which Potency does the source give for `CC1(C(=O)NCc2ccc3c(c2)OCO3)CCc2cnc(NCc3ccccc3)nc21` (stereo unspecified) here?
Answer: The Potency was active: 3.16 µM.

Question: For `Cc1oc(-c2cccc(C(F)(F)F)c2)nc1CN1CCN(C)C(CCO)C1` (stereo unspecified), which Potency is on record?
Answer: Its Potency is inconclusive: 50.1 µM [inhibitor, partial curve, poor fit].

Question: For `COCC1CN(C2CCC2)CC12CCN(C(=O)c1ccsc1)CC2` (stereo unspecified), which Potency is on record?
Answer: The Potency was inconclusive: 50.1 µM [inhibitor, partial curve, poor fit].

Question: For `COc1ccc(-c2[nH]nc3ncc(C(=O)N4CCC(c5ccccc5)CC4)nc23)c(C)c1`, which Potency is on record?
Answer: The Potency was inconclusive: 8.91 µM [inhibitor, full curve, poor fit].

Question: With `Cc1nn(-c2ccccc2)c2c1C(C(C)C)N(C1CCN(C(=O)C3CCCC3)C1)C2=O` (stereo unspecified) as the compound, how does the Potency read?
Answer: The Potency was active: 20 µM.

Question: Which Potency does the source give for `Fc1ccc(CN2Cc3[nH]cnc3C[C@H]2c2nc(-c3ccccc3)no2)cc1` here?
Answer: The Potency was active: 79.4 µM.

Question: Which “outcome” value does the source give for `COCCc1noc(-c2ccccc2OC2CN(C(=O)C(C)C)C2)n1` here?
Answer: The value was “inactive”.

Question: Which “activity change, negative = cytotoxicity” value does the source give for `CNC(=O)c1cc(C)nc2onc(C3CCCN3C(=O)C3CCCCC3)c12` (stereo unspecified) here?
Answer: Its value is inactive: -28.4%.

Question: Which “outcome” value does the source give for `CN1CC(=O)N(C2CCCNCC2)Cc2c1ncnc2N1CCN(c2ncccn2)CC1` (stereo unspecified) here?
Answer: The value was “inactive”.

Question: With `N#Cc1cccc(CN2CCC(c3nc4ccc(F)cc4c(=O)[nH]3)CC2)c1` as the compound, how does the Potency read?
Answer: The Potency was inconclusive: 44.7 µM [inhibitor, partial curve, poor fit].

Question: For `O=C(c1cccc(F)c1)N1CCCC(Cc2noc(-c3ccccc3)n2)C1` (stereo unspecified), which Potency is on record?
Answer: Its Potency is active: 31.6 µM.

Question: Which “activity change, negative = cytotoxicity” value does the source give for `COc1cccc(-c2ccc(C(=O)N3CCC(NC(=O)c4ccc(C(F)(F)F)cc4)CC3)cc2)c1` here?
Answer: Its value is inactive: -10.9%.

Question: With `O=C1COc2ccc(-c3cc(F)cc(F)c3)nc2CN1Cc1ccccc1F` as the compound, how does the Potency read?
Answer: Its Potency is inconclusive: 89.1 µM [inhibitor, partial curve, poor fit].

Question: With `CC(C)(C)c1cc(C[C@@H]2C[C@H](NS(=O)(=O)c3ccccc3)C2(C)C)no1` as the compound, how does the Potency read?
Answer: Its Potency is inconclusive: 56.2 µM [inhibitor, partial curve, poor fit].

Question: With `OCc1cc(CC2(NCc3ccc(C(F)(F)F)cc3)COC2)no1` as the compound, how does the “activity change, negative = cytotoxicity” value read?
Answer: The value was inactive: -20.4% [at 174 µM].

Question: Which Potency does the source give for `COc1ccc(F)cc1-c1cccc(C(=O)NCC(=O)NCc2ccc3c(c2)OCO3)c1` here?
Answer: The Potency was inconclusive: 50.1 µM [inhibitor, partial curve, poor fit].

Question: For `O=C(N[C@H]1C[C@H]2C(=O)NC[C@@H](CCC(=O)N3CCN(c4ccccn4)CC3)N2C1)c1ccccc1`, which “activity change, negative = cytotoxicity” value is on record?
Answer: The value was inactive: -7%.

Question: Which Potency does the source give for `Clc1ccc(-c2nnc([C@H]3CCN(Cc4ccccc4)C3)o2)cc1` here?
Answer: Its Potency is inconclusive: 100 µM [inhibitor, partial curve, poor fit].
